{"source": "paper PMC9911399", "about": "“Two distinct binding modes provide the RNA-binding protein RbFox with extraordinary sequence specificity”", "binders": {"B1": {"name": "CGGGCCA (DNA:RNA)", "RNA": "GGGAGACCGGAAUUCAGAUUGUCCCGGGCCAUUAAAUCCCGUCGUAGCCACCA", "DNA 1": "CAATCTGAATTCCGGTCTCCC", "DNA 2": "TGGTGGCTACGACGGGATT"}, "B2": {"name": "UCGCACA (DNA:RNA)", "RNA": "B1 RNA with C25U, G26C, G28C, C29A", "DNA 1": "CAATCTGAATTCCGGTCTCCC", "DNA 2": "TGGTGGCTACGACGGGATT"}, "B3": {"name": "AGCCGGG (DNA:RNA)", "RNA": "B1 RNA with C25A, G27C, G28C, C29G, C30G, A31G", "DNA 1": "CAATCTGAATTCCGGTCTCCC", "DNA 2": "TGGTGGCTACGACGGGATT"}, "B4": {"name": "UUCUUGG (DNA:RNA)", "RNA": "GGGAGACCGGAAUUCAGAUUGUCCUUCUUGGUUAAAUCCCGUCGUAGCCACCA", "DNA 1": "CAATCTGAATTCCGGTCTCCC", "DNA 2": "TGGTGGCTACGACGGGATT"}, "B5": {"name": "UGCGUUU (DNA:RNA)", "RNA": "B4 RNA with U26G, U28G, G30U, G31U", "DNA 1": "CAATCTGAATTCCGGTCTCCC", "DNA 2": "TGGTGGCTACGACGGGATT"}, "B6": {"name": "UUCGACA (DNA:RNA)", "RNA": "B1 RNA with C25U, G26U, G27C, C29A", "DNA 1": "CAATCTGAATTCCGGTCTCCC", "DNA 2": "TGGTGGCTACGACGGGATT"}, "B7": {"name": "CCGUUGA (DNA:RNA)", "RNA": "B1 RNA with G26C, G28U, C29U, C30G", "DNA 1": "CAATCTGAATTCCGGTCTCCC", "DNA 2": "TGGTGGCTACGACGGGATT"}, "B8": {"name": "AAGCAUC (DNA:RNA)", "RNA": "B1 RNA with C25A, G26A, G28C, C29A, C30U, A31C", "DNA 1": "CAATCTGAATTCCGGTCTCCC", "DNA 2": "TGGTGGCTACGACGGGATT"}, "B9": {"name": "AGGUUGU (DNA:RNA)", "RNA": "B4 RNA with U25A, U26G, C27G, G31U", "DNA 1": "CAATCTGAATTCCGGTCTCCC", "DNA 2": "TGGTGGCTACGACGGGATT"}, "B10": {"name": "UCGGGGU (DNA:RNA)", "RNA": "B1 RNA with C25U, G26C, C29G, C30G, A31U", "DNA 1": "CAATCTGAATTCCGGTCTCCC", "DNA 2": "TGGTGGCTACGACGGGATT"}, "B11": {"name": "UCUUCUC (DNA:RNA)", "RNA": "B4 RNA with U26C, C27U, U29C, G30U, G31C", "DNA 1": "CAATCTGAATTCCGGTCTCCC", "DNA 2": "TGGTGGCTACGACGGGATT"}, "B12": {"name": "UGGGGGG (DNA:RNA)", "RNA": "B1 RNA with C25U, C29G, C30G, A31G", "DNA 1": "CAATCTGAATTCCGGTCTCCC", "DNA 2": "TGGTGGCTACGACGGGATT"}, "B13": {"name": "GCAGGGC (DNA:RNA)", "RNA": "B1 RNA with C25G, G26C, G27A, C29G, C30G, A31C", "DNA 1": "CAATCTGAATTCCGGTCTCCC", "DNA 2": "TGGTGGCTACGACGGGATT"}, "B14": {"name": "UGGCGUC (DNA:RNA)", "RNA": "B1 RNA with C25U, G28C, C29G, C30U, A31C", "DNA 1": "CAATCTGAATTCCGGTCTCCC", "DNA 2": "TGGTGGCTACGACGGGATT"}, "B15": {"name": "ACACCAG (DNA:RNA)", "RNA": "B1 RNA with C25A, G26C, G27A, G28C, C30A, A31G", "DNA 1": "CAATCTGAATTCCGGTCTCCC", "DNA 2": "TGGTGGCTACGACGGGATT"}, "B16": {"name": "CACCAGU (DNA:RNA)", "RNA": "B4 RNA with U25C, U26A, U28C, U29A, G31U", "DNA 1": "CAATCTGAATTCCGGTCTCCC", "DNA 2": "TGGTGGCTACGACGGGATT"}, "B17": {"name": "AGAAUUC (DNA:RNA)", "RNA": "B1 RNA with C25A, G27A, G28A, C29U, C30U, A31C", "DNA 1": "CAATCTGAATTCCGGTCTCCC", "DNA 2": "TGGTGGCTACGACGGGATT"}, "B18": {"name": "GAAACGG (DNA:RNA)", "RNA": "B4 RNA with U25G, U26A, C27A, U28A, U29C", "DNA 1": "CAATCTGAATTCCGGTCTCCC", "DNA 2": "TGGTGGCTACGACGGGATT"}, "B19": {"name": "GAACUUU (DNA:RNA)", "RNA": "B4 RNA with U25G, U26A, C27A, U28C, G30U, G31U", "DNA 1": "CAATCTGAATTCCGGTCTCCC", "DNA 2": "TGGTGGCTACGACGGGATT"}, "B20": {"name": "CCUAUAU (DNA:RNA)", "RNA": "B1 RNA with G26C, G27U, G28A, C29U, C30A, A31U", "DNA 1": "CAATCTGAATTCCGGTCTCCC", "DNA 2": "TGGTGGCTACGACGGGATT"}}, "note": "Substitutions are numbered along the chain they refer to; changes in the protein carry UniProt numbers. The list shows a part of the results."}
{"molecular_target": "T1, RBFOX1 RRM RbFoxmut (Fox-RRM*) (Homo sapiens, UniProt Q9NWB1 109-208, R118D;E147R;N151S;E152T)", "T1 sequence": "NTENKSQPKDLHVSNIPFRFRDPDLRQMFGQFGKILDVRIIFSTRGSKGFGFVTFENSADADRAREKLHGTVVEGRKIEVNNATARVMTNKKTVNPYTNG", "experiment": "EMSA; HiTS-Eq, 1 nM pool, 10 min; buffer printed only for the single-RNA assays: 10 mM Tris pH 7.5, 150 mM NaCl, 3.4 mM EDTA, 0.001% NP-40, 30 C", "conditions": "tags: His6 N-terminal (pET28a); label: 5' 32P", "summary_of_the_method": "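Purified RbFox RRM, wild type or mutant, was incubated for 10 min in 50 µL with 1 nM of a 5′-radiolabelled RNA pool carrying 7 randomized nucleotides, whose flanks were annealed to DNA oligonucleotides, over a series of increasing protein concentrations. Unbound RNA was resolved on 8% native PAGE, cut out, reverse-transcribed, barcoded by PCR and sequenced on an Illumina HiSeq 2500. Relative association constants were derived from changes in read counts for each RNA species versus the control reaction and normalised to the cognate motif.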"}
{"binder": "B1", "binding signal": "0.0815 KA relative to UGCAUGU"}
{"binder": "B2", "binding signal": "0.069 KA relative to UGCAUGU"}
{"binder": "B3", "binding signal": "0.0677 KA relative to UGCAUGU"}
{"binder": "B4", "binding signal": "0.0878 KA relative to UGCAUGU"}
{"binder": "B5", "binding signal": "0.0934 KA relative to UGCAUGU"}
{"binder": "B6", "binding signal": "0.0669 KA relative to UGCAUGU"}
{"binder": "B7", "binding signal": "0.112 KA relative to UGCAUGU"}
{"binder": "B8", "binding signal": "0.196 KA relative to UGCAUGU"}
{"binder": "B9", "binding signal": "0.332 KA relative to UGCAUGU"}
{"binder": "B10", "binding signal": "0.121 KA relative to UGCAUGU"}
{"binder": "B11", "binding signal": "0.0635 KA relative to UGCAUGU"}
{"binder": "B12", "binding signal": "0.0903 KA relative to UGCAUGU"}
{"binder": "B13", "binding signal": "0.0579 KA relative to UGCAUGU"}
{"binder": "B14", "binding signal": "0.16 KA relative to UGCAUGU"}
{"binder": "B15", "binding signal": "0.113 KA relative to UGCAUGU"}
{"binder": "B16", "binding signal": "0.0817 KA relative to UGCAUGU"}
{"binder": "B17", "binding signal": "0.0834 KA relative to UGCAUGU"}
{"binder": "B18", "binding signal": "0.0484 KA relative to UGCAUGU"}
{"binder": "B19", "binding signal": "0.0595 KA relative to UGCAUGU"}
{"binder": "B20", "binding signal": "0.104 KA relative to UGCAUGU"}
